Experimental data reported in the antibiotic and cytotoxicity screens of Wong et al. (2023).
The list shows a part of the results.

Key:
HSkMC = human skeletal muscle cells; assay: cytotoxicity call (relative viability < 0.9); conditions: 10 µM
HepG2 = assay: cytotoxicity call (relative viability < 0.9); conditions: 10 µM
S. aureus RN4220 = assay: growth inhibition call (relative growth <= 0.2); conditions: 50 µM

CCS(=O)(=O)N(C)C[C@@H]1OCc2ccccc2-c2c(n(C)c3ccccc23)C(=O)N([C@@H](C)CO)C[C@@H]1C
inactive: cytotoxicity call (HSkMC) | cytotoxicity call (HepG2) | growth inhibition call (S. aureus RN4220)

O=S(=O)(O)c1ccc2c(c1)cc(S(=O)(=O)O)c1nn(-c3ccc(/C=C/c4ccc(-n5nc6c(S(=O)(=O)O)cc7cc(S(=O)(=O)O)ccc7c6n5)cc4S(=O)(=O)O)c(S(=O)(=O)O)c3)nc12
inactive: cytotoxicity call (HSkMC) | cytotoxicity call (HepG2) | growth inhibition call (S. aureus RN4220)

COc1ccc(NC(=O)N(C)C[C@H]2Oc3ncc(C#C[C@H](C)O)cc3C(=O)N([C@@H](C)CO)C[C@@H]2C)cc1
inactive: cytotoxicity call (HSkMC) | cytotoxicity call (HepG2) | growth inhibition call (S. aureus RN4220)

Cc1ccccc1Nc1nnc(C)c(=O)n1N
inactive: cytotoxicity call (HSkMC) | cytotoxicity call (HepG2) | growth inhibition call (S. aureus RN4220)

CN([C@@H](Cc1ccc(OS(=O)(=O)c2cccc3cnccc23)cc1)C(=O)N1CCN(c2ccccc2)CC1)S(=O)(=O)c1cccc2cnccc12
inactive: cytotoxicity call (HSkMC) | cytotoxicity call (HepG2) | growth inhibition call (S. aureus RN4220)
